# Experimental data from PubChem BioAssay AID504832 (National Center for Advancing Translational Sciences (NCATS), 2011).
# About 18,000 (5.8%) of roughly 310,000 compounds were called active. Inconclusive results, whose numbers are uncertain, are shown with a selection of clear calls. Calls come from the whole dose curve; as a rule, active = well fitted inhibition curve with a large enough effect; inconclusive = small, poorly fitted or top-dose-only effect, or another doubt; inactive = no such curve, though single readings can be large or run the other way. Potencies of inconclusive entries are left out as doubtful fits.
# Experiment: Primary qHTS for delayed death inhibitors of the malarial parasite plastid, 48 hour incubation
# Conditions: P. falciparum luciferase growth in erythrocytes; series mostly up to 28.7 µM
# Summary of the method: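 A one-generation exposure of luciferase-tagged malaria parasites in RPMI 1640/Albumax erythrocyte culture, 37 C and 5% CO2. Inhibition is inferred from decreased luminescence after adding detection reagent.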
# Potency is the fitted concentration of half-maximal effect; tags give direction and shape of the fitted curve.
row,Compound,Potency
1,N=c1c(C(=O)NC2CCCCC2)cc2c(=O)n3ccccc3nc2n1CC1CCCO1 (stereo not given),"inconclusive [inhibitor, single point]"
2,Cn1c(N)c(-c2ccccc2)c2ccc([N+](=O)[O-])cc2c1=O,"inconclusive [inhibitor, full curve, poor fit]"
3,c1cncc(-c2nc(NCCCN3CCOCC3)c3c4c(sc3n2)CCC4)c1,active: 11.7 µM
4,COCC(=O)N1CCC(Oc2ccc(C(=O)NCc3cc(C(C)C)no3)cc2)CC1,inactive
5,COc1ccccc1N1CCN(C(=O)CSc2ccc3c(C)cc(C)nc3n2)CC1,active: 10.4 µM
6,CSc1ccccc1NC(=O)CN(C)Cc1cccc(Cl)c1,"inconclusive [inhibitor, single point]"
7,C=CCOC(=O)C1=C[C@H](c2cn(C(C)=O)c3ccccc23)C[C@H](OCc2ccc(CO)cc2)O1,"inconclusive [inhibitor, partial curve]"
8,Cc1ccc(NC(=S)N(Cc2ccccc2)Cc2cccs2)c(C)c1,"inconclusive [inhibitor, single point]"
9,Clc1ccc(-c2nc3ccccc3n2OCc2ccccc2)cc1,"inconclusive [inhibitor, partial curve, poor fit]"
10,O=C(CNc1ccc(Br)cc1)c1ccccc1,"inconclusive [inhibitor, partial curve, poor fit]"
11,Cc1nc(N2CCC(C)CC2)c2c(C)c(C(=O)Nc3ccc(C(F)(F)F)cc3)sc2n1,active: 0.208 µM
12,CC1CCCCN1C(=O)Cn1cnc2cc([N+](=O)[O-])ccc2c1=O (stereo not given),inactive
13,COc1ccc(CCNC(=O)C(=O)NCC2OCCN2S(=O)(=O)c2ccc(C)cc2)cc1OC (stereo not given),"inconclusive [inhibitor, single point]"
14,N#Cc1ccc(-c2ccc(OCC3CNC(=O)O3)cc2)cc1 (stereo not given),inactive
15,Nc1ccccc1NC(=O)c1ccccc1,inactive
16,Cn1c(=N)c(S(=O)(=O)c2ccccc2)cc2c(=O)n3ccccc3nc21,"inconclusive [inhibitor, partial curve, poor fit]"
17,CCCC(=O)Nc1nn(CC)c2nc3ccc(C)cc3cc12,"inconclusive [inhibitor, partial curve, poor fit]"
18,COc1cccc(Nc2nc(-c3sc(NC(=O)CC(C)C)nc3C)cs2)c1,"inconclusive [inhibitor, partial curve]"
19,Cc1nc2c(ccc3nc(NC(=O)C(c4ccccc4)c4ccccc4)sc32)s1,active: 3.7 µM
20,CC1CC(c2ccccc2)n2nc(NC(=O)c3ccco3)nc2N1 (stereo not given),inactive
21,Cc1ccc(C(C)NC(=O)c2ccc3c(c2)OCCO3)cc1C (stereo not given),"inconclusive [inhibitor, single point]"
22,CSc1nc2nc3c(c(=O)n2[nH]1)CN(Cc1ccccc1)CC3,"inconclusive [inhibitor, single point]"
23,Cn1cccc1C(=O)Nc1nc(-c2ccccn2)cs1,"inconclusive [inhibitor, partial curve]"

row,Compound,Potency
1,COc1ccc(CCN2CCCC(CN(C)Cc3cc(Cl)c(O)c(OC)c3)C2)cc1 (stereo not given),active: 2.33 µM
2,Cc1ccc(-c2nnc(SCC(=O)Nc3ccc(S(=O)(=O)N4CCCCCC4)cc3)o2)cc1,"inconclusive [inhibitor, full curve]"
3,CCOc1ccc(N(Cc2ccc(OC)cc2)C(=O)c2ccco2)cc1,"inconclusive [inhibitor, partial curve, poor fit]"
4,CCOc1ccc(-c2[nH]nc3c2C(c2ccc4c(c2)OCO4)C(C#N)=C(N)O3)cc1OC (stereo not given),inactive
5,COc1ccc(/C=N/n2c(N)c(S(=O)(=O)c3cccs3)c3nc4ccccc4nc32)cc1OC,active: 2.94 µM
6,COc1ccc(S(=O)(=O)N(CC(=O)Nc2ccc3c(c2)OCO3)c2ccccc2OC)cc1,"inconclusive [inhibitor, single point]"
7,O=S(=O)(c1ccccc1)N1N=C(c2cccs2)CC1c1ccc(F)cc1 (stereo not given),"inconclusive [inhibitor, full curve, poor fit]"
8,Cn1c(SCc2ccccc2)nc2ccsc2c1=O,"inconclusive [inhibitor, single point]"
9,CCOC(=O)c1c(NC(=O)CN2C(=O)NC3(CCC(C)CC3)C2=O)sc(C)c1-c1ccc(C)cc1 (stereo not given),inactive
10,COc1ccc(C(=O)/C=C/Nc2ccc([N+](=O)[O-])cc2)cc1,inactive
11,O=[N+]([O-])c1ccccc1S(=O)(=O)Nc1cccc2cccnc12,active: 2.33 µM
12,O=c1oc2ccccc2n1CCCOc1ccccc1,inactive
13,Cc1ccc(NC(=O)C2CCCN(S(=O)(=O)c3c(C)noc3/C=C/N(C)C)C2)cc1F (stereo not given),"inconclusive [inhibitor, single point]"
14,COc1cccc(NC(=O)CSc2nnc(Cc3ccc(OC)c(OC)c3)o2)c1,inactive
15,COc1ccc(OC)c(C2CC(c3ccc(NS(C)(=O)=O)cc3)=NN2C(=O)c2ccccc2)c1 (stereo not given),"inconclusive [inhibitor, single point]"
16,Cc1cccnc1-n1c(CCN2C(=O)c3ccccc3C2=O)nc2ccccc2c1=O,"inconclusive [inhibitor, single point]"
17,COc1cccc(C(=O)N/N=C(/c2ccccc2)c2ccccn2)c1,active: 9.28 µM
18,COc1ccc(NC(=O)CN(C)CC(=O)Nc2ccc(C)c(S(=O)(=O)N3CCCCC3)c2)cc1,"inconclusive [inhibitor, partial curve]"
19,O=C(Nc1ccc(N2CCN(C(=O)c3cccs3)CC2)cc1)c1ccc(F)cc1,"inconclusive [inhibitor, single point]"
20,COc1cccc(C2CCCN2Cc2nc(CCC(C)C)no2)c1 (stereo not given),"inconclusive [inhibitor, single point]"
21,COc1ccc(CNC(=O)C(OC(=O)c2cccs2)C(C)C)cc1 (stereo not given),inactive
22,O=C(Nc1ccc([N+](=O)[O-])cc1)C(Cc1ccccc1)N1C(=O)c2cccc3cccc(c23)C1=O (stereo not given),active: 5.22 µM
